# Assays:
# Assay in all cases: cross-link between two proteins; cross-linking mass spectrometry
# [1] = molecular target: T1, 26S proteasome non-ATPase regulatory subunit 1 (UniProt Q3TXS7)
# T1 sequence: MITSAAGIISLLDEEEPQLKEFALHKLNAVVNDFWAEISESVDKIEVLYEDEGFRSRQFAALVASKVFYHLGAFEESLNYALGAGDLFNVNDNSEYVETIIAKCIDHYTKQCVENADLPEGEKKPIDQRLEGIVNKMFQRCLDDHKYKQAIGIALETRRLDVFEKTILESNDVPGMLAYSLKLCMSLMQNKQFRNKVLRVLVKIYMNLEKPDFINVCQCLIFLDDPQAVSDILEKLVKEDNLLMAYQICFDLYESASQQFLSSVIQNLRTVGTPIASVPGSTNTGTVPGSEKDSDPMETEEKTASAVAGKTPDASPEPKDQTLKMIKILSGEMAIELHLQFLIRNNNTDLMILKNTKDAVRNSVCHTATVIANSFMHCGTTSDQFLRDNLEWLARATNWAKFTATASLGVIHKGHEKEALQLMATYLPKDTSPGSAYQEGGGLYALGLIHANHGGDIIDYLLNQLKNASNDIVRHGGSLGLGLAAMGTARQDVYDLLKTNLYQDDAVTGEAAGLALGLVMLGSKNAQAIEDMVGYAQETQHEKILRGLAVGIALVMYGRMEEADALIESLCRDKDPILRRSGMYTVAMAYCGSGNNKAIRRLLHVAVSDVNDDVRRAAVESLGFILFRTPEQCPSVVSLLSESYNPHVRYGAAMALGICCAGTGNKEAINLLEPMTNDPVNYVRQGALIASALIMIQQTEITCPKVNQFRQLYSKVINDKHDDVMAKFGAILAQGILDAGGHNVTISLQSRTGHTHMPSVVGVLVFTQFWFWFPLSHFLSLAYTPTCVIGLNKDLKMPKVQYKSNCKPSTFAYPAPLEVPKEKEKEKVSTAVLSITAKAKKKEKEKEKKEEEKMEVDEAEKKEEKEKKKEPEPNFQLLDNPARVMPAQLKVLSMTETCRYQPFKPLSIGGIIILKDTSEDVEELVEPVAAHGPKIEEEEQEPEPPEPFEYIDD
# Renin receptor = Renin receptor (UniProt Q9CYN9)
# UniProt Q9CYN9, sequence (Q9CYN9 whole entry): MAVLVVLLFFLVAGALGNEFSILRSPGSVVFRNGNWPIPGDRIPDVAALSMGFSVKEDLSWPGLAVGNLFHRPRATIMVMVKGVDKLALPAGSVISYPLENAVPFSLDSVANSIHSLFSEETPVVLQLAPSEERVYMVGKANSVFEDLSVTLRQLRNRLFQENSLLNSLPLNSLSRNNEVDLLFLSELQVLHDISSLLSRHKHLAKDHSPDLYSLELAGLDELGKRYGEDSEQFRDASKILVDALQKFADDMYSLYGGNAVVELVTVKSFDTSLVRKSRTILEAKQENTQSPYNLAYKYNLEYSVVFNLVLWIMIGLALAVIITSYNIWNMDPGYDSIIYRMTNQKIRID
# [2] = molecular target: V-type proton ATPase 116 kDa subunit a 1 (UniProt Q9Z1G4)
# UniProt Q9Z1G4, sequence (Q9Z1G4 whole entry): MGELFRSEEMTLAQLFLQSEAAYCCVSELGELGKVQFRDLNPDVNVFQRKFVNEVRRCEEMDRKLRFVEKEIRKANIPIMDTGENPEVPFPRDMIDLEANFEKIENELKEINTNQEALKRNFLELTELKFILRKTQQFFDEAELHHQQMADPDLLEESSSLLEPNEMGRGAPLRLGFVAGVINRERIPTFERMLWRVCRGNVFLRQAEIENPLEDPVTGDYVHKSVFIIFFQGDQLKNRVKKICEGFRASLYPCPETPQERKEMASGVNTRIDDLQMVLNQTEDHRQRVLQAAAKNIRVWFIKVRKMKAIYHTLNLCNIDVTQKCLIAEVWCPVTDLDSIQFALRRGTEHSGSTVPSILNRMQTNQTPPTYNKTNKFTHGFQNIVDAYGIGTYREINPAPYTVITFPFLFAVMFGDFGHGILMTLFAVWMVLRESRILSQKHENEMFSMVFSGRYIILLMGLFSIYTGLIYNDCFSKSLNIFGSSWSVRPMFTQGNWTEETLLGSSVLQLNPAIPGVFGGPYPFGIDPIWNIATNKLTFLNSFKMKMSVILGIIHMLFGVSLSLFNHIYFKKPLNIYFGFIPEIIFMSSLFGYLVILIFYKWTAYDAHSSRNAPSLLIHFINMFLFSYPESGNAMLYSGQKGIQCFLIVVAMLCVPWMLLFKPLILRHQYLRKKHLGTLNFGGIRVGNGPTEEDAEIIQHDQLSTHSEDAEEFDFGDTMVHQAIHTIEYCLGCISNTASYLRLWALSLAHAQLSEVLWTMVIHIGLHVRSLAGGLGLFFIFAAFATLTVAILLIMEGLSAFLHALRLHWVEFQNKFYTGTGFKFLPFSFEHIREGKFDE
# [3] = molecular target: Solute carrier family 25 member 3 (UniProt Q00325)
# UniProt Q00325, sequence (Q00325 whole entry): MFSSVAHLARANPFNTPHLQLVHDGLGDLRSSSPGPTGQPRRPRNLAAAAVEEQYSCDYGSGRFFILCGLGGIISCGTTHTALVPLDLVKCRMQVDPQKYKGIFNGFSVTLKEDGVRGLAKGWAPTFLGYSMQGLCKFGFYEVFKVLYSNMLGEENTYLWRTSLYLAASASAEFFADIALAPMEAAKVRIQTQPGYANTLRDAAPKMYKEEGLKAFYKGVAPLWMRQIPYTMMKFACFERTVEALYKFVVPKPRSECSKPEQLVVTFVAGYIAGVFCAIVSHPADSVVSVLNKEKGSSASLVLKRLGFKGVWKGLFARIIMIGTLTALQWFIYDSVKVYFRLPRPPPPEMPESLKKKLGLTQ
# V-type proton ATPase subunit d 1, sequence (chain, as listed by the source): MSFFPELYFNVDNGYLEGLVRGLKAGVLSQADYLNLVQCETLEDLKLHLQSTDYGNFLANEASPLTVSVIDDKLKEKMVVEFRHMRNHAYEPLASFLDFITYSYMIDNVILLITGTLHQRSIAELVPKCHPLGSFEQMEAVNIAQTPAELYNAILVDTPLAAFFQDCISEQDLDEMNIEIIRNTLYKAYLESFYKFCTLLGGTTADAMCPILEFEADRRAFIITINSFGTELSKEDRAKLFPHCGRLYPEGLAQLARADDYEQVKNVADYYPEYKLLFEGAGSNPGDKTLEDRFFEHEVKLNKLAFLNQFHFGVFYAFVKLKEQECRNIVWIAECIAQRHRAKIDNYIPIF
# 26S proteasome regulatory subunit 8, sequence (chain, as listed by the source): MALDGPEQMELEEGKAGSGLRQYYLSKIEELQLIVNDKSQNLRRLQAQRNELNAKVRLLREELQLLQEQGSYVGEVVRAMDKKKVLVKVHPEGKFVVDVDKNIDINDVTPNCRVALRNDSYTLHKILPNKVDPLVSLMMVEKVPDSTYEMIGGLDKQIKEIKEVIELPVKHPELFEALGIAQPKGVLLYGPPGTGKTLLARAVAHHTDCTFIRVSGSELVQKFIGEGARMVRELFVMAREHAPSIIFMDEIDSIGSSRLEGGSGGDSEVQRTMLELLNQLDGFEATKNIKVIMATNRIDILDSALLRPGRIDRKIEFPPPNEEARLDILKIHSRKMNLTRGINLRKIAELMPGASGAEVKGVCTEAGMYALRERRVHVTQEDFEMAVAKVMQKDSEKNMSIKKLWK
# Cytochrome c oxidase subunit 4 isoform 1, mitochondrial, sequence (chain, as listed by the source): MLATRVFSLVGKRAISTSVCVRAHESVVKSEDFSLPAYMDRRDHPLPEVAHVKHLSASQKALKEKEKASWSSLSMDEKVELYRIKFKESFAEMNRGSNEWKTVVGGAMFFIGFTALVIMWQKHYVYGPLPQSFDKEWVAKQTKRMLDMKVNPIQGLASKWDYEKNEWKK
substance,measurement,setting,value
26S proteasome regulatory subunit 8,listed as a hit,[1],yes
V-type proton ATPase subunit d 1,listed as a hit,Renin receptor,yes
same,listed as a hit,[2],yes
"Cytochrome c oxidase subunit 4 isoform 1, mitochondrial",listed as a hit,[3],yes

# Reference: article PMC11024108
